The results in this text go back to the RNAGym collection of RNA variant scans (doi:10.7554/elife.90254).

The source gives no read counts; variants with many changes may rest on few reads.

The labels stand for the following.
B1: OR4K15 (parent)
chain: GUUAACGGUCAUAGGCCAUGGAAACUAGGAGCACCAUUUCGCUGCCAGUGAAGAAAUGAACAAAGAAAAUCUGGGCCAGGCAGGCAUCAAAAGAAAUAGUCUUGCGCUCAACCAGAAAGUCUGUAAUCAUUUUAAGGGUA

In the data set the parent is B1. In words: self-cleavage, relative activity (ratio to wild type); higher = more cleavage; in vitro, sequencing; the parent is a self-cleaving ribozyme.
With A24G U26C A59G, the self-cleavage came out at 0.88.

Consider A24G U39C A51U U122C, for which the self-cleavage was found to be 0.73.

For the variant A24G G50U A51G, the self-cleavage is 1.06.

Consider C25U A98G U108C, for which the self-cleavage came to 0.04.

With A24U A59G A90G, the self-cleavage came to 0.92.

In the case of A27G A68G U70C A90G, the self-cleavage came to 0.85.

As to A24G A51G U103C A126C U131C, the self-cleavage came to 0.08.

For U26C A33U A55C U120C U139A, the self-cleavage turned out to be 0.96.

Regarding A24G A62C A67G, the self-cleavage was 0.89.

Regarding A24G A52U U100C A135G, the self-cleavage is 1.96.

For A24G A94G U124C, the self-cleavage amounted to 1.35.

Regarding A24G U37C U127C U133C, the self-cleavage is 1.67.

Turning to C25U C42A G58A U100C A135G, the self-cleavage is 1.48.

As for A24U A66U U122C, the self-cleavage is 0.96.

As for U26C U70C U102C A110G, the self-cleavage came out at 0.06.

Turning to A24G A47G A125G, the self-cleavage was 0.32.

Turning to U26C A55G A117C, the self-cleavage was determined as 0.41.

As for A24G A66G A117G, the self-cleavage amounted to 1.82.

As for A24G A62G A69G A134G, the self-cleavage was found to be 1.43.

For the variant U26C A91G A98G, the self-cleavage was determined as 0.62.

For the variant A24G A52G G75A A82G, the self-cleavage was 0.18.

As for A24G A54G A95G, the self-cleavage came out at 1.83.

In the case of A24G A51U U87C, the self-cleavage stood at 1.49.

On to A24G A69G U127C, for which the self-cleavage is 0.45.

As for U26A G75U A91G U100C, the self-cleavage was found to be 0.15.

Consider U26C U43A A51G U102C, for which the self-cleavage was determined as 1.74.

For U26C G93A U131C A135G, the self-cleavage turned out to be 0.6.

Consider A24G C32U A62G A118G, for which the self-cleavage was found to be 0.22.

For the variant A27G A64G A67G, the self-cleavage came to 1.18.

U26C A60G C107U: the self-cleavage stood at 0.02.

With A27G A60G A82U A111G A135G, the self-cleavage stood at 0.

Take A24U U72C A94G A98G: the self-cleavage was determined as 0.09.

U26C A92G C128A: the self-cleavage stood at 1.42.

Consider U26C A56G U72C A94G U103C, for which the self-cleavage worked out at 0.13.

With U26C A54G U87A, the self-cleavage stood at 0.77.

Regarding A27G A64G A66G U122C, the self-cleavage came to 1.44.

For U26C A52U U100C, the self-cleavage was found to be 2.31.

For the variant A24G U37C A51G A67G G75A, the self-cleavage is 0.12.

On to A24G A51G A56G A59G A62G G106U U139A, for which the self-cleavage came to 0.02.

With A24G U57C A78G A94G, the self-cleavage turned out to be 0.38.

For A27G A52G A56C A78G, the self-cleavage is 0.15.

Turning to A24G A92U U108C, the self-cleavage came to 0.04.

Turning to U26C U102C A129U, the self-cleavage came to 1.09.

With A24G U87C A114C A135G, the self-cleavage was determined as 0.03.

As to A24G A125G U127C, the self-cleavage was determined as 0.33.

With C25U G28A A111G, the self-cleavage is 0.04.

With A27G A33C A52G, the self-cleavage turned out to be 0.47.

With U26C A78G U124C, the self-cleavage was found to be 0.17.

Consider A24G G44C A94G, for which the self-cleavage amounted to 1.6.

On to A24G A94G U124A U130C, for which the self-cleavage was determined as 0.24.

Consider U26C U72G A90G A111U, for which the self-cleavage is 0.03.

On to A24G U43C A89G, for which the self-cleavage was 1.6.

With U26A A36U U49C, the self-cleavage turned out to be 1.5.

U26C U43C U102C: the self-cleavage was 1.11.

Turning to A24U U39C A78C C128A, the self-cleavage was 0.15.

Regarding U26C A54G U122C, the self-cleavage came out at 1.12.

As to A27G A66G A90G, the self-cleavage came to 1.91.

In the case of A24G A54G U122C, the self-cleavage was 1.52.

Turning to A24G A118G A126G, the self-cleavage was determined as 0.49.

For the variant A27G A55U A91G A126G U139C, the self-cleavage came to 0.47.

On to U26C A63G A96G, for which the self-cleavage turned out to be 2.

On to A24G A54G U72A A94G U132C, for which the self-cleavage was found to be 0.31.

Turning to A24G A66G A68G A111G, the self-cleavage amounted to 0.03.

Consider A27G A51U A92G A98G U133G, for which the self-cleavage is 0.87.

Consider A24G U87A A94G, for which the self-cleavage was 1.91.

Take A24U U57C A114U: the self-cleavage came to 0.02.

C25U U70C U103C: the self-cleavage was 0.39.

Regarding A24G G41A U43C A96G A117G, the self-cleavage turned out to be 1.49.

Turning to A24G A126G U131C, the self-cleavage was 0.67.

For the variant A27G A60G A64G, the self-cleavage amounted to 0.57.

With A27G A60G A64U, the self-cleavage is 0.96.

With A24G A69U U87C A95G U102A, the self-cleavage amounted to 1.47.

On to A24G A62G A64G U87C A116G, for which the self-cleavage came to 0.78.

With C25A U72C U100C U127A A135U, the self-cleavage was found to be 0.38.

Regarding U26G A62G A90G, the self-cleavage turned out to be 1.27.

As to A24U G75C U122G, the self-cleavage was determined as 0.19.

With U26C U37C U108C U133A, the self-cleavage was found to be 0.02.

Turning to A24G A62G U87C, the self-cleavage was found to be 0.43.

For the variant A24G A47G U102A, the self-cleavage was 0.53.

For the variant A24G U103C U108C A110G U127A, the self-cleavage stood at 0.02.

In the case of A24U U57A A62G A117G, the self-cleavage is 0.46.

With A24G A111G C113A, the self-cleavage is 0.01.

Regarding A27G A62U A95G A116C U124C, the self-cleavage came out at 0.06.

As for C25A C32A A47G A89G, the self-cleavage came out at 0.18.
